Data: PubChem BioAssay AID1963576 (National Center for Advancing Translational Sciences (NCATS), 2024)
Hit rate of the full screen: of about 46,000 compounds, about 60 (0.1%) were called active. Inconclusive results (about 3%) are left out. The call rests on the fitted dose curve; in most records, active means well fitted inhibition curve with a large enough effect; inconclusive means small, poorly fitted or top-dose-only effect; inactive means no such curve, though single readings can be large or run the other way. This is one part of the list.

Experiment: Primary qHTS assay for Inhibitors of ovarian cancer metastasis using an organotypic tumor microenvironment (TME) model. Further: nearly all actives have a fitted effect of over 65% in size.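 On activity change, negative = inhibition: plate controls were DMSO wells for no effect and tomatine positive control wells for full effect.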
Conditions: SKOV3ip1-GFP adhesion/invasion on 3D omental model, fluorescence; series mostly up to 45.8 µM; activity change, negative = inhibition: at the top concentration
Method in brief: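 Adhesion/invasion was scored as fixed GFP-labeled SKOV3ip1 cell counts (488/509 nm), normalized to DMSO and tomatine controls. Cancer cells in serum-free medium, with four compound doses (0.36-46 umol/L), sat 2 hr at RT then 16 hr at 37 C on a 48 hr fibroblast/mesothelial/ECM culture.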

Row | Structure (SMILES) | activity change, negative = inhibition | outcome
1 | CCOc1ccc(Cn2c(CNS(=O)(=O)c3cccc(Cl)c3)nc3cccnc32)cc1 | inactive: -6.05% | 
2 | CCCNC(=O)Cn1nc(-c2ccc(F)cc2)c2cnc3ccc(F)cc3c21 |  | inactive
3 | CCOc1cccc(C(=O)N(Cc2ccc(CC)cc2)C2CCS(=O)(=O)C2)c1 (stereo not drawn) | inactive: -22.7% | 
4 | Cn1c(=O)[nH]c2cc(-c3noc(-c4cccc(Cl)c4)n3)ccc21 |  | inactive
5 | CCCCN(CC)C(=O)Cn1ncc2c3ccccc3n(CCC)c2c1=O | inactive: 3.88% | 
6 | COc1ccc(-n2cc(C(=O)NCc3ccccc3Cl)c3ccccc3c2=O)cc1 | inactive: -11.5% | 
7 | COc1ccccc1NC(=O)CSC1=Nc2ccccc2C2=NC(CCC(=O)NCc3cccs3)C(=O)N12 (stereo not drawn) | inactive: -3.85% | 
8 | CCC(C)NC(=O)c1cccc(NC(=O)c2nsc3ccccc23)c1 (stereo not drawn) | inactive: 0.71% | 
9 | CCN(Cc1ccccc1)S(=O)(=O)c1ccc2c(c1)CC(C)N2C(=O)C1CCC1 (stereo not drawn) |  | inactive
10 | Cc1ccc(N(CC(=O)Nc2cccc(Cl)c2)S(=O)(=O)c2cccs2)cc1 | inactive: 4.87% | 
11 | Cc1ccc(Cl)cc1N(C)C(=O)c1cn(C2CCCCC2)c(=O)c2c1c1ccccc1n2C | inactive: 16.3% | 
12 | CC(=O)C1=C(c2ccc(Cl)cc2)N(C(C)=O)n2c(nnc2C2CCCCC2)S1 | inactive: -0.358% | 
13 | COc1cccc(CNC(=O)c2cc3c(=O)oc4ccc(C)cc4c3s2)c1 |  | inactive
14 | Cc1ccc2c(c1)N(CCC(=O)NCc1ccccc1Cl)C(=O)CO2 | inactive: 5.3% | 
15 | Cc1ccc2onc(CC(=O)Nc3ccc(C(C)C)cc3)c2c1 | inactive: -6% | 
16 | O=c1c2oc3ccccc3c2n(Cc2ccccc2F)c(=O)n1Cc1ccccc1 | inactive: 3.55% | 
17 | Cn1c(=O)[nH]c(=O)c2c1nc(NCCc1ccccc1)n2Cc1ccc(F)cc1 | inactive: 1.1% | 
18 | CCOc1ccc(OCC)c(NS(=O)(=O)c2ccc(-c3coc(C)n3)cc2)c1 |  | inactive
19 | CC(=O)N1CCC(N(Cc2ccc(C)o2)C(=O)Nc2ccc(C)cc2)CC1 | inactive: 2.86% | 
20 | COc1ccc(-c2nnc(SCc3cccc(Cl)c3)o2)cc1 |  | inactive
21 | Cn1cnc2c(=O)oc3ccc(S(=O)(=O)Nc4ccc(F)cc4)cc3c21 |  | inactive
22 | COc1cc(NC(=O)c2cn(C3CCCC3)c(=O)c3c2c2ccccc2n3C)cc(OC)c1OC | inactive: 22% | 
23 | CCOc1ccccc1NC(=O)Cc1noc2ccc(C)cc12 | inactive: -14.4% | 
24 | CCOc1ccc2nc(NC(=O)c3nc(SC)ncc3Cl)sc2c1 | inactive: -0.314% | 
25 | Cn1cc(S(=O)(=O)N2CCOCC2)cc1C(=O)Nc1ccc(Cl)c(C(F)(F)F)c1 | inactive: -8.95% | 

Row | Structure (SMILES) | activity change, negative = inhibition | outcome
26 | Cc1ccc(O)c(NC(=O)c2cc(-c3ccccc3O)no2)c1 | inactive: -2.02% | 
27 | Cc1cc(NC(=O)Nc2nnc(N(C)Cc3ccccc3)s2)ccc1Br | inactive: -11.3% | 
28 | COc1cccc(C2C(C(=O)Nc3ccc(C)cc3C)=C(C)Nc3nc4ccccc4n32)c1OC (stereo not drawn) |  | inactive
29 | COc1ccc2nc(N(Cc3cccnc3)C(=O)C3CCCCC3)sc2c1 | inactive: -4.19% | 
30 | CC1(C)C(=O)N(CC(=O)Nc2ccc(Br)cc2F)c2ccccc21 | inactive: 4.16% | 
31 | COc1ccc(N2CCN(CCCNC(=O)Cn3c(-c4cccs4)cc4ccccc43)CC2)cc1 | inactive: 10.9% | 
32 | CCOc1ccc(CNS(=O)(=O)c2ccc(-c3coc(C)n3)cc2)cc1 | inactive: -6.74% | 
33 | CCOC(=O)c1cc(S(=O)(=O)N2CCN(c3ccccc3F)CC2)[nH]n1 |  | inactive
34 | Cc1nc2ccc(S(=O)(=O)N(C)CC(=O)Nc3cccc(C(F)(F)F)c3)cc2s1 |  | inactive
35 | CCCCNC(=O)c1cccc(-n2c(C)nc3cccnc32)c1 | inactive: 4.64% | 
36 | CCCCN(CC)CCCNC(=O)Nc1sc2nc3n(c(=O)c2c1C)CCC(C)CC3 (stereo not drawn) | inactive: -7.51% | 
37 | CC(NC(=O)C1CCN(c2nc3ccccc3nc2C(F)(F)F)CC1)c1ccccc1 (stereo not drawn) | inactive: 96.7% | 
38 | Cc1c(NC(=O)Nc2ccccc2C(F)(F)F)sc2nc3n(c(=O)c12)CCC(C)CC3 (stereo not drawn) | inactive: -6.46% | 
39 | CC(C)CCNC(=O)c1cnc2sc(N3CCCCC3)nn2c1=O | inactive: 1.07% | 
40 | COc1ccc(N(C(=O)c2cccc(C)c2)S(=O)(=O)c2ccc(Cl)cc2)cc1 | inactive: 0.833% | 
41 | CCOc1cc(C(=O)N2CCn3c4c(c5cc(C)ccc53)CCCC42)cc(OCC)c1OCC (stereo not drawn) |  | inactive
42 | Fc1ccc2c(c1)-c1nc(-c3ccccc3)cc(-c3ccccc3)c1CO2 |  | inactive
43 | O=C(CCCCCn1c(=O)[nH]c2ccccc2c1=O)NCc1ccccc1 | inactive: 17.4% | 
44 | O=C(C1CCCN(S(=O)(=O)c2cccc3nsnc23)C1)N1CCN(c2ccccc2Cl)CC1 (stereo not drawn) | inactive: -9.35% | 
45 | Cc1ccc(S(=O)(=O)c2nnn3c2nc(N2CCCC2)c2sccc23)cc1 | inactive: -3.4% | 
46 | COc1cccc(N2CCN(c3ncnc4onc(-c5ccc(F)cc5)c34)CC2)c1 | inactive: 4.46% | 
47 | Cc1ccc(-c2nnc3c4ccccc4c(C)nn23)cc1NC(=O)c1ccccc1Cl | inactive: -2.29% | 
48 | Cc1ccc(C)c(NC(=O)CSC2=Nc3ccccc3N=C(c3ccc(F)cc3)C2)c1 | inactive: -1.38% | 
49 | CCOC(=O)c1cc(S(=O)(=O)N2CCN(c3ccc(C)cc3C)CC2)[nH]n1 |  | inactive
50 | CCC(=O)N1CCc2cc(S(=O)(=O)NC(Cc3ccccc3)C(=O)Nc3cccc(OC)c3)ccc21 (stereo not drawn) | inactive: -0.0812% | 

Row | Structure (SMILES) | activity change, negative = inhibition | outcome
51 | Cc1ccc2c(c1)c(N1CCCC1=O)c(C(=O)Nc1ccc(F)cc1F)n2C |  | inactive
52 | Cc1cccc(N(C)c2ccc3cc(S(=O)(=O)N4CCCC4)ccc3n2)c1 | inactive: -1.01% | 
53 | CN(C)c1ccc(NC(=O)Cn2cc(S(=O)(=O)Cc3cccc(Cl)c3)c3ccccc32)cc1 |  | inactive
54 | Cc1nc2scc(C)n2c(=O)c1S(=O)(=O)N1CCN(c2cccc(C(F)(F)F)c2)CC1 | inactive: 1.93% | 
55 | COc1ccccc1CNC(=O)CCC1N=C2c3ccccc3N=C(SCc3ccc(C)cc3)N2C1=O (stereo not drawn) |  | inactive
56 | COC(=O)c1c(NC(=O)Nc2ccc(Cl)cc2)sc(C)c1C |  | inactive
57 | Cc1cc(C(=O)NCc2ccc(Cl)cc2)c2c(C)nn(-c3ccccc3)c2n1 | inactive: 8.24% | 
58 | COc1ccc(N2CC(NC(=O)c3cc4ccccc4o3)CC2=O)cc1 (stereo not drawn) | inactive: -14.6% | 
59 | CC(=O)c1cc(-c2ccccc2)n(CCC(=O)Nc2ccc(C)cc2C)c1C | inactive: -0.745% | 
60 | CCCc1nnc(NC(=O)c2cc(=O)c3cc(Cl)ccc3o2)s1 |  | inactive
61 | CC1Cc2cc(S(=O)(=O)NCCc3ccccc3)ccc2N1C(=O)C1CCC1 (stereo not drawn) | inactive: 11.6% | 
62 | COc1ccc(CCC(=O)NCCc2csc(-c3ccc(C(F)(F)F)cc3)n2)cc1 | inactive: -8.88% | 
63 | Cc1ccc2c(c1)N(C(=O)Nc1cccc(C)c1C)CCO2 | inactive: -4.28% | 
64 | CC1CCC(N2CC(=O)N(C3CCCCC3)C(c3ccc(F)cc3)C2=O)CC1 (stereo not drawn) | inactive: -5.95% | 
65 | CS(=O)(=O)N1CCc2cc(C(=O)N3CCN(c4ccccc4)CC3)ccc21 | inactive: -14% | 
66 | Cc1cc(Br)ccc1NC(=O)c1ccc(NS(=O)(=O)c2c(C)noc2C)cc1 | inactive: -0.308% | 
67 | CCCC1=Nc2cc(C(=O)NCCc3ccccc3)ccc2Sc2ccc(C)cc21 | inactive: 8.83% | 
68 | COc1ccccc1NC(=O)NCc1cccn1Cc1ccccc1 | inactive: 2.12% | 
69 | CCOc1ccc(-c2nc(SCC(=O)NC3CCCC3)c(-c3ccccc3)[nH]2)cc1OC | inactive: 6.13% | 
70 | CCOc1ccc(NC(=O)/C=C\C(=O)N(c2ccc(C(C)C)cc2)C(C(=O)NCc2ccco2)c2ccc(F)cc2)cc1 (stereo not drawn) |  | inactive
71 | COc1ccc(-c2cnn3c(C)cc(C)nc23)cc1OC | inactive: 5.42% | 
72 | COc1cccc(-c2nc(SCC(=O)NC3CCCC3)c(-c3ccccc3)[nH]2)c1 |  | inactive
73 | CCOc1ccc(CCNC(=O)CCc2c(C)nc3cc(-c4ccccc4OC)nn3c2C)cc1 |  | inactive
74 | CSc1ccc(CCNC(=O)CN2C(=O)c3cccnc3Oc3ccc(Cl)cc32)cc1 | inactive: 4.26% | 
75 | Cc1c(-c2nsc(NC(=O)c3cccc(Cl)c3)n2)nnn1-c1ccccc1C(F)(F)F |  | inactive

Row | Structure (SMILES) | activity change, negative = inhibition | outcome
76 | Cc1ccc(-c2noc(CCCC(=O)NCc3ccco3)n2)cc1 | inactive: 0.134% | 
77 | CCOc1ccc(CCNC(=O)CSc2cc(=O)n(C)c3cc(Cl)ccc23)cc1OCC | inactive: 0.822% | 
78 | CCCOc1ccc(C(=O)Nc2ccc(Cl)c(-c3nc4ncccc4o3)c2)cc1 | inactive: 0.949% | 
79 | O=C(CSc1nc(-c2cccs2)nc2cc(=O)[nH]n12)Nc1ccccc1F | inactive: 14.2% | 
80 | COc1cc(C(=O)N2CCc3c([nH]c4ccccc34)C2c2ccc(C)cc2)cc(OC)c1OC (stereo not drawn) | inactive: -19.1% | 
81 | Nc1c(-c2nc(-c3ccc4c(c3)OCO4)cs2)c2ccccn2c1C(=O)c1ccccc1 | inactive: -4.65% | 
82 | CCCCn1c(NCc2cc(Cl)ccc2O)nc2ccccc21 |  | inactive
83 | CCN(CCCNC(=O)CSc1cc(=O)n(CC)c2ccccc12)c1cccc(C)c1 |  | inactive
84 | Cc1ccc(NC(=O)c2c(C)oc3nc(C)nc(N4CCCC4)c23)c(C)c1 | inactive: -10.4% | 
85 | CC(Sc1cn(CCNC(=O)c2ccccc2F)c2ccccc12)c1ccccc1 (stereo not drawn) | inactive: -16.7% | 
86 | CCC(C(=O)Nc1ccccc1OC)n1nc(C)c2sc3ccccc3c2c1=O (stereo not drawn) |  | inactive
87 | Cc1ccc(C)c(OCC(=O)Nc2ccc(S(=O)(=O)Nc3onc(C)c3C)cc2)c1C |  | inactive
88 | O=S(=O)(c1ccc(F)cc1)N(Cc1nc(-c2ccc(Cl)cc2)no1)C1CCCCC1 | inactive: 6.77% | 
89 | Cc1ccc2c(=O)c(C(=O)c3ccc(Cl)cc3)cn(CC(=O)NC3CCCCC3)c2n1 | inactive: -4.73% | 
90 | COc1ccc(NC(=O)c2c(NCc3sccc3C)sc3c2CCCCC3)c(OC)c1 | inactive: 5.05% | 
91 | COC(=O)c1ccc(NC(=O)CSc2ncc3c(n2)-c2cc(Cl)ccc2N(Cc2ccccc2)S3(=O)=O)cc1 |  | inactive
92 | CCOc1ccc(CCNC(=O)c2ccc(CS(=O)Cc3cccc(Cl)c3)o2)cc1 (stereo not drawn) |  | inactive
93 | COc1ccc(C)cc1NC(=O)Cn1c(=O)ccc2cc(S(=O)(=O)N3CCC(C)CC3)ccc21 | inactive: -18.2% | 
94 | Cc1ccc(NC(=O)CCC(=O)N2CCSc3ccccc32)cc1Cl |  | inactive
95 | COC(=O)C(C)n1nnc2sc(-c3ccccc3)cc2c1=O (stereo not drawn) | inactive: -1.91% | 
96 | CCC(C(=O)Nc1cc(F)ccc1F)n1nc(-c2cc(C)ccc2C)ccc1=O (stereo not drawn) |  | inactive
97 | CCOC(=O)N1CCc2c(sc3c2c(=O)n(Cc2ccccc2)c(=O)n3CC(=O)Nc2ccc(C)c(C)c2)C1 |  | inactive
98 | COC(=O)c1sccc1S(=O)(=O)N(CC(=O)Nc1c(C)cccc1C)c1ccc(C)c(C)c1 | inactive: 3.75% | 
